# Results published in the supplement of paper PMC4166925.
# ± gives the standard deviation of the averaged measurements. In all, about 33,000 sequences were measured (“E-score (dimensionless, -0.5 to 0.5)”: median about -0.046, highest 2% from about 0.36 on). This is one part of the list.
# Test system: T1, SpTbr T-box DNA-binding domain (GST fusion)
# T1 sequence: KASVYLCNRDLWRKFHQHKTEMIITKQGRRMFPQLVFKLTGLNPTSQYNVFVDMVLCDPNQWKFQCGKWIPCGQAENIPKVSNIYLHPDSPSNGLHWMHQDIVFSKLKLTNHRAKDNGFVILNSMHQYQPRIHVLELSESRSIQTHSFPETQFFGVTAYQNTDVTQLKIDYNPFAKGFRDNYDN
# Experiment: PBM E-score of 8-mer (E-score (dimensionless, -0.5 to 0.5)); Tbr is Tbrain of the sea star Patiria miniata (Pm) or the sea urchin Strongylocentrotus purpuratus (Sp); higher = stronger binding preference; most listed sequences are background and not binding sites
# Details: the construct has about 5 more residues each side
# Method in brief: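 Using the Universal PBM Analysis Suite, every ungapped 8-mer received an enrichment E-score averaged over duplicate arrays. Probe intensities came from double-stranded Universal Agilent oligonucleotide arrays incubated with 200 nM GST-fused Tbr T-box DNA-binding domain in PBS (pH 7.5). That protein was expressed in BL21 E. coli at 20 °C and purified by glutathione affinity chromatography.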
row,Sequence,PBM E-score of 8-mer
1,CCTTCTCA,0.0198 ± 0.088
2,AGCTTTGA,-0.239 ± 0.067
3,CGGAAGTC,-0.166 ± 0.062
4,ACCCGGCC,-0.136 ± 0.016
5,AAAGAGTA,-0.107 ± 0.13
6,CCTGAAAG,-0.253 ± 0.035
7,AGGCAACG,0.0612 ± 0.062
8,GATTGGTA,-0.15 ± 0.049
9,GACCCCTC,-0.00634 ± 0.066
10,GACCACAC,0.28 ± 0.038
11,GCGCGCGC,0.0386 ± 0.035
12,GGCCCTAC,-0.211 ± 0.065
13,CAGGGTAC,-0.0581 ± 0.078
14,CAGCCGGC,-0.0135 ± 0.023
15,AACCCGAT,0.0929 ± 0.049
16,AGAAGGCT,-0.0249 ± 0.022
17,GGGAGTGA,0.204 ± 0.0052
18,CCTGACCC,-0.133 ± 0.084
19,TACGGTAA,-0.0909 ± 0.058
20,CAGCGCTA,0.116 ± 0.045
21,CTAACCAA,-0.0774 ± 0.073
22,CCTCGAAG,-0.0399 ± 0.025
23,ATAAAGTC,-0.0715 ± 0.032
24,AGGTTATA,0.0561 ± 0.06
25,CCGTAGTA,-0.238 ± 0.043

row,Sequence,PBM E-score of 8-mer
1,GGCTTCAA,-0.0895 ± 0.031
2,ATACTGAT,-0.117 ± 0.0039
3,GCTGAACA,-0.132 ± 0.039
4,ACAAAATA,-0.00317 ± 0.0089
5,CGTGTAGC,0.0236 ± 0.011
6,CCGAACAG,-0.0871 ± 0.062
7,ACTCTAAC,-0.144 ± 0.026
8,GATGAATC,-0.024 ± 0.047
9,AGCCGCCC,-0.267 ± 0.033
10,CTATACTC,-0.118 ± 0.04
11,CTCGCGGC,0.17 ± 0.018
12,AATTCTTG,-0.0559 ± 0.075
13,AGTCGCAC,0.387 ± 0.0041
14,AGTGAGTG,0.124 ± 0.033
15,CGATTCCC,0.0184 ± 0.014
16,AACGACGC,0.196 ± 0.0023
17,ATCCCTTC,-0.198 ± 0.053
18,ACTCTCCA,-0.197 ± 0.012
19,CGCCCAAA,-0.143 ± 0.042
20,CAACCCGC,0.0581 ± 0.066
21,GCCAGTGA,-0.0539 ± 0.08
22,CGCTGAAC,-0.00722 ± 0.02
23,CCATAAAA,-0.237 ± 0.09
24,ACAATATG,0.11 ± 0.028
25,ACATCACC,0.126 ± 0.037

row,Sequence,PBM E-score of 8-mer
1,AACGCCTG,0.292 ± 0.006
2,CACTTACG,0.228 ± 0.06
3,CTTGAACC,-0.236 ± 0.042
4,AATATATT,-0.325 ± 0.025
5,TCACAGAA,0.129 ± 0.013
6,GACAGCCA,0.211 ± 0.0079
7,GCGGGCTA,-0.319 ± 0.093
8,GATTACTA,-0.14 ± 0.04
9,AAACCCCG,-0.0472 ± 0.019
10,ACGAGCAT,-0.0497 ± 0.081
11,CCGTACTA,-0.087 ± 0.016
12,CACTAGCG,0.139 ± 0.072
13,CCAGGGTA,-0.124 ± 0.031
14,CTTTGGAC,-0.00665 ± 0.022
15,CAAGCCTA,-0.141 ± 0.038
16,ATTCTCGG,-0.0511 ± 0.073
17,CAAGGTCC,-0.257 ± 0.041
18,AGCTTTCG,0.0665 ± 0.027
19,GCACAAGA,-0.0761 ± 0.12
20,TCCCGAGA,-0.0404 ± 0.043
21,GTCACCAC,0.306 ± 0.0096
22,ACCAACGA,0.102 ± 0.0046
23,ACGTTACG,-0.00872 ± 0.058
24,TATCCCAA,-0.193 ± 0.082
25,ACGACACG,0.226 ± 0.042

row,Sequence,PBM E-score of 8-mer
1,GTAACCCA,-0.131 ± 0.021
2,AGACTTAG,-0.0887 ± 0.022
3,ACTAAGAA,-0.181 ± 0.077
4,AGGAACAA,0.00263 ± 0.041
5,TACATTGA,-0.109 ± 0.04
6,TATGAGGA,-0.216 ± 0.029
7,AGTTCGGC,-0.0722 ± 0.068
8,CCCACTCA,0.138 ± 0.057
9,CCTAGTTA,-0.168 ± 0.024
10,CATCGTAG,-0.139 ± 0.1
11,ACGCTTAC,0.109 ± 0.0068
12,ACGAGTCC,-0.261 ± 0.04
13,GGCCATAC,-0.203 ± 0.026
14,GGACCAAA,-0.212 ± 0.02
15,CATATCAC,0.238 ± 0.054
16,ATTGTAGC,-0.133 ± 0.062
17,AGGTATCA,0.183 ± 0.024
18,ATCTATCC,-0.159 ± 0.0024
19,CCGAACAC,0.248 ± 0.039
20,GTAGTCAA,-0.127 ± 0.051
21,CGGGAACC,-0.064 ± 0.024
22,AAGTGTTC,0.226 ± 0.11
23,AAGTATGA,-0.0929 ± 0.097
24,TCGTAAGA,-0.204 ± 0.0035
25,GTGTAACA,0.27 ± 0.017

row,Sequence,PBM E-score of 8-mer
1,ATTGCTAC,-0.186 ± 0.037
2,AAGAGAAT,-0.287 ± 0.022
3,AGTTAAAA,-0.143 ± 0.054
4,GCCCCTAC,-0.0948 ± 0.025
5,GGATAGCC,-0.214 ± 0.029
6,ACAAGGTA,0.0584 ± 0.021
7,AATAGCGC,0.158 ± 0.022
8,CTCTGAGC,-0.105 ± 0.021
9,AAAGGACC,-0.108 ± 0.026
10,GGTCCACA,0.078 ± 0.085
11,AACACTCG,0.193 ± 0.0083
12,CTGGCCCC,-0.113 ± 0.035
13,CTACTGGC,0.0629 ± 0.026
14,CTCCAGCA,-0.103 ± 0.0024
15,ATGACCAA,-0.137 ± 0.026
16,GTCATGAA,-0.13 ± 0.0072
17,AATGTGAT,0.253 ± 0.0037
18,CTCGTCCA,-0.0131 ± 0.024
19,AAGATCGA,-0.12 ± 0.059
20,AGGGTGTA,0.307 ± 0.035
21,AGGCTACT,0.0207 ± 0.0056
22,AGCGCACC,-0.00226 ± 0.0026
23,GTCGACCA,-0.132 ± 0.051
24,GATTCACC,-0.0546 ± 0.0018
25,ACGGTCGC,0.231 ± 0.037

row,Sequence,PBM E-score of 8-mer
1,AAATGAGG,-0.257 ± 0.035
2,ATGTCGAC,0.119 ± 0.059
3,GCCTCGCC,0.0505 ± 0.087
4,GTATATAC,0.0264 ± 0.12
5,AAACTCCG,-0.00816 ± 0.039
6,ACCTTTAA,0.00473 ± 0.039
7,TCGACGCA,-0.0484 ± 0.008
8,CATTAAGC,-0.289 ± 0.018
9,CTGTCATC,0.177 ± 0.013
10,TCAATCGA,-0.0374 ± 0.037
11,ATCCCAAA,-0.282 ± 0.029
12,CAGAGTGG,-0.183 ± 0.059
13,AGAAACAG,-0.152 ± 0.019
14,AGACGCCT,0.0499 ± 0.039
15,GATTACCA,-0.111 ± 0.013
16,CATTAGGG,-0.154 ± 0.023
17,AAAGTAGT,-0.0543 ± 0.04
18,ACGTAGTG,0.0424 ± 0.0026
19,ACATCACA,0.334 ± 0.015
20,GCGTCAGA,0.125 ± 0.049
21,GCCGATTA,-0.134 ± 0.067
22,AACTACTA,0.0694 ± 0.016
23,CCAGGCCC,-0.268 ± 0.06
24,ATTGCCCC,-0.232 ± 0.016
25,CCTACTAC,-0.0653 ± 0.03

row,Sequence,PBM E-score of 8-mer
1,GGCCTACC,-0.048 ± 0.0016
2,TAACTGGA,-0.118 ± 0.038
3,GCCGTGCA,-0.216 ± 0.1
4,CCTCGTAC,-0.22 ± 0.0077
5,AACTTTTA,-0.0953 ± 0.064
6,ATGAGTAC,-0.0248 ± 0.023
7,CCTAGGTC,0.00702 ± 0.05
8,CTGTCAAG,0.18 ± 0.023
9,GCTTTACC,-0.196 ± 0.021
10,CCTCAAAA,-0.153 ± 0.026
11,CTGACAAG,0.211 ± 0.018
12,GGAACCCC,-0.185 ± 0.0092
13,AAGACGCC,-0.0502 ± 0.016
14,CTAATATA,-0.3 ± 0.085
15,AGGCCAGG,-0.142 ± 0.04
16,ATCAAAAG,-0.237 ± 0.043
17,ACCCTTTC,-0.0966 ± 0.057
18,ACAGACGC,0.0616 ± 0.0029
19,GAACGTGA,0.101 ± 0.0031
20,GCCTCGTA,-0.267 ± 0.025
21,CACCTGCA,0.346 ± 0.0038
22,GTAGCCGA,-0.187 ± 0.026
